In the supplement of paper PMC11417369:
± gives the standard deviation of the averaged measurements. The list shows a part of the results.

System: PfAP2-G AP2 domain (GST-tagged)
Assay: gcPBM binding intensity (ln(normalized median fluorescence intensity)); higher = stronger DNA binding
In short: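 Binding intensity is defined as the maximum Masliner-normalised natural-log median intensity across replicate spots for either probe orientation. It was measured on an Agilent 4 × 180k array of primer-extended double-stranded 36-bp intergenic genomic probes and negative controls, to which GST-tagged P. falciparum DNA-binding domains made in E. coli were applied for 1 h in 1× PBS with 1% milk, 0.2 mg/ml BSA, 0.5% salmon testes DNA and 0.03% Triton X-100. Detection was by Alexa488 anti-GST antibody and scanning at 488 nm.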

Sequence | gcPBM binding intensity (ln)
AAAAAAAAAAAAAACTGTACCAAAAAGAATATATAC [XGTACX_site8345] | 10.9 ± 0.51
TTTAATTTTATATAGAGTACAAAAAAATAGAAAGAT [XGTACX_site3870] | 11.3 ± 0.77
ATATATATATATATATGTACATAAATATTTTAAAAT [XGTACX_site4980] | 11.3 ± 0.75
TTTGAGATAAAAGACTGTACTTAGAATGTATAAAAA [XGTACX_site203] | 11.3 ± 0.79
ACAATAAAAATAAAAAGTACAAATAAAAAAAATAAA [XGTACX_site6718] | 11.4 ± 0.9
TTGTTTCTACAATTTAATAAAATACGTTTTCAAAAA [XGTACX_negctrl_site377] | 9.95 ± 0.27
TACTCCTTAAATATATGTAAAGGAAGAAAAAAAAAA [XGTACX_negctrl_site306] | 10 ± 0.22
ATATATATATATATATGTACACATATACGCTTTTTC [XGTACX_site3838] | 11.4 ± 0.98
AATATATGTTTAATTTCACACACAAATATACATTTT [CACACA_site9385] | 10.04 ± 0.049
AAGTAAAATAAGTATACACACATAAATATATATATA [CACACA_site685] | 9.95 ± 0.16
TTTTCTTGTAAATTACGTACGAATGTGTAGAGAAAT [XGTACX_site1339] | 11.2 ± 0.65
ACTTGTAAGAAACACACACACACACCCATATATATA [CACACA_site796] | 10.2 ± 0.14
TCTATAAAGGAATATACACACATATATATATATATA [CACACA_site410] | 9.9 ± 0.32
TATAATAATACGTATTGTACTATTAGGTTAATTCGT [XGTACX_site264] | 11.1 ± 0.66
TATATATATAAATACACACACATATATATATATATA [CACACA_site4867] | 10.3 ± 0.67
TATTTATTTATTTATTTATTTATTTATTTATATTTA [CACACA_negctrl_site398] | 9.4 ± 0.085
TATATATTTTTATTATGTACATATTAACAATGTGTT [XGTACX_site879] | 11.1 ± 0.76
ATCCTCTTTACAATATGTACATAAATATATATTTAT [XGTACX_site8001] | 11.3 ± 0.69
TAAAATATAAAACACACACACATATATATATATATT [CACACA_site224] | 9.7 ± 0.042
TTATATAAATTATTTACACACAAACATTTATACTTT [CACACA_site3449] | 9.86 ± 0.085
TTTCTAATTTATATCACACACATATTTATATAGTAA [CACACA_site6813] | 9.9 ± 0.18
GGCGTATGTGTATATACACACCCACGTATATAAATA [CACACA_site7489] | 10.4 ± 0.37

Sequence | gcPBM binding intensity (ln)
ATAAAATAAACATAAATAAACATAAATAAACAAAAA [CACACA_negctrl_site1270] | 9.805 ± 0.064
AGGTATATATACATATGTACGTATATATATATATAT [XGTACX_site5115] | 11.4 ± 0.75
TATAATACAACATGCACACATATATATGTGAATCTC [CACACA_site2490] | 10.06 ± 0.078
TTTAAAAATAAAAGTACACACATAAACATATTACAC [CACACA_site1428] | 11.5 ± 0.94
AAGATACCCCAAAATTGTACATATTAAAATAATAAA [XGTACX_site3603] | 11.3 ± 0.95
TATTCCCTTCTTCCTTCTGTTTTTGATATTAAAGGG [GTGCAC_negctrl_site270] | 9.72
ATACTTTATTCGTTAGCACACAATTCAAGTTGATTC [CACACA_site1123] | 10.1 ± 0.13
ATGAAAGTAAGACATGCATGGAATTTTTTTTATTAG [TGCATGCA_site348] | 9.705 ± 0.078
AAAAAAAAAAATAAATAAATAAATAAATATATATAT [TGCATGCA_negctrl_site468] | 9.68 ± 0.51
TACATACATATATATACACACATATATAATATATAT [CACACA_site388] | 10.1 ± 0.21
TATATATACATATACACACATACGTACATACATATA [CACACA_site3585] | 11.4 ± 0.82
ATATTCATATATACTTCACACACATTTTATCATTCA [CACACA_site8784] | 9.99 ± 0.11
GGAATATTTTATGAGTGTACATTTTTTTTTTTTTTT [XGTACX_site2370] | 11.2 ± 0.59
TTTCTTTTTTTTTTTTTTTCTTTTTTTTTTTTTTTC [CACACA_negctrl_site1025] | 9.66 ± 0.028
ATAATCCAACTTTGAGTGCGTGGTGTTTTTTTTTTC | 10.01 ± 0.035
CTGAAAAAAAAGCTTGCACACGTATTTGCTTTATGT [CACACA_site8427] | 10.5 ± 0.19
TTACTTATAAATAAATATACAAAAATGTTATATATA [XGTACX_negctrl_site223] | 9.625 ± 0.078
ATATGTCACTTGTATACACACATATATATTTCAATC [CACACA_site3256] | 10.2 ± 0.12
GAAAATAGCTAAAATACACACAATTAAAAATTATTA [CACACA_site3506] | 9.84 ± 0.16
AGGAATATAAAGTGCACACATAATTTGGGGGCAAAA [CACACA_site258] | 11 ± 0.54
TTTTTTTTTTTTGAAGTGCATTACTTTTTTTGTATT [GTGCAC_site9811] | 9.91 ± 0.23
TTTTTTGTGTTTGGTACACACGTTATAAAAAATAAA [CACACA_site4866] | 11.1 ± 0.88

Sequence | gcPBM binding intensity (ln)
AGGGACATCTATATCACACACAAAAATTAGTCCCTT [CACACA_site7330] | 10.3 ± 0.15
TTGTAAAACTTATAATGTACATTTTTTTTTTTTTTT [XGTACX_site5398] | 11 ± 0.51
ATAAGAAAATATAAAATGCACACTATAAATTGTATA [CACACA_site143] | 9.88 ± 0.15
TATATAGAGAGATATGCACACTGTATGAATGCCCCC [CACACA_site5476] | 11.1 ± 0.69
TATACCTATATACATACATGCAAATATATATTCATA [TGCATGCA_site269] | 9.89 ± 0.028
TTTTTTTTTTTTTGCACACACATTGAATTATTATTC [CACACA_site197] | 9.93 ± 0.38
TTTATATACATTTTAAATTTTAATGTAACCCATGGG [TGCATGCA_negctrl_site115] | 10.2 ± 0.33
TATATATTTATAAATGAACACACACCCAATTTGAAT [CACACA_site9113] | 10.5 ± 0.26
TTTATTTTTATAAGAGCATGCACTGTTTAAAATGGT [TGCATGCA_site628] | 10.1 ± 0.42
AAAAAAAAAAAAAGTACACACATACCTATAAATATA [CACACA_site6937] | 11.5 ± 0.96
TTTACCTCTTCAATGGTGCAATAACTCAAAAATTTG | 10.2 ± 0.27
TTTTTATTTTATTAGTGTACTTTATATTTAACAATA [XGTACX_site1175] | 11.5 ± 1
ATAAATAAAATAAAAGCACACAAAATGTAAATAATT [CACACA_site8895] | 10.04 ± 0.057
TATTTCTGATTACATACACACATATACAGATATGAC [CACACA_site7490] | 10.1 ± 0.099
TATATACCTATATACACACACATATATAAATAAATA [CACACA_site7341] | 9.78 ± 0.12
AACAAATACAAAGAATAGTCATCTGAATGGTGTTAT [GTGCAC_negctrl_site685] | 9.87 ± 0.16
TTATATATAATATATACACACACATGTATATATAAA [CACACA_site8603] | 9.885 ± 0.078
TATGTTCCATTTTTTGGTACACATACAATAACTGCT [XGTACX_site2256] | 11.3 ± 0.82
ATTACATACGAGCACACGTAAAAGTATAATATAAAA [GTGCAC_negctrl_site446] | 10.3 ± 0.31
TTTGTATTGTGCAGATGTACATTATAATATTGGATT [XGTACX_site5033] | 11.1 ± 0.72
ATTAATATGAAACGATTATAAGAAAGAAAAGAAATG [GTGCAC_negctrl_site701] | 9.9 ± 0.099
TACATATACAGACACACACACACACCCCCACAAAAA [CACACA_site495] | 11.3 ± 0.82

Sequence | gcPBM binding intensity (ln)
AAATTGAATTAGTTAACACACAACTTTTATTTCATA [CACACA_site2840] | 9.71 ± 0.16
CATATACATATATGTAGTACGTGTTCTTCTATATGA [XGTACX_site8344] | 11.3 ± 0.72
AGCATCATTTTACACACATGCAAATGTAAAATAGGA [TGCATGCA_site460] | 9.94 ± 0.057
AAATTAATAAGTCACACACACATATATAATATATAT [CACACA_site799] | 10.05 ± 0.085
AATATATACATTTATATACACACCTATATATATATA [CACACA_site1972] | 10.2 ± 0.24
GTTATATGTTATATATATATATATATATATATATAT [TGCATGCA_negctrl_site428] | 9.81 ± 0.15
ATAAAGATTAATTCAAGTACACATCAAATACTACAA [XGTACX_site8794] | 11.4 ± 0.82
TATATATATTTATGTACACACATCAATCATATTAAC [CACACA_site5127] | 11.4 ± 0.92
AAAAATAATGCACATATATATAATATGTATATGTAT [CACACA_negctrl_site443] | 9.92 ± 0.028
CATGTATTTTATATTACACACTAATATTATATATAT [CACACA_site1508] | 9.94 ± 0.16
GAATGTATAAAATGAACACACGCCAAATTAAATGAA [CACACA_site3044] | 9.99 ± 0.028
TTTTAAACAAGACACACACACATATATATATATATA [CACACA_site925] | 10.3 ± 0.47
TTATTGTAAATATATGCATGTGCAAAATGAAAAAAA [TGCATGCA_site399] | 9.98 ± 0.014
ATGTTTACATATTAGGGTACATAATAAATTGCATAT [XGTACX_site6712] | 11.2 ± 0.72
TAGAGTATATATAAATGTACATATTTTATGCTAATT [XGTACX_site7821] | 11.2 ± 0.73
AATAAACAAATATGTACACACATATACCTATAAATA [CACACA_site7358] | 11.4 ± 1
CCAACATATATTATCACACACATATATATATATATA [CACACA_site2016] | 10.2 ± 0.48
ATATTAGATTAATTTACACACAGAAAATGAGATTTT [CACACA_site541] | 9.705 ± 0.078
AAAAAATTAAATAATTACAAAAAAATAAAATAAAAA [GTGCAC_negctrl_site638] | 9.44 ± 0.14
ATAATGATTATAATATGTACATAAATATATATATTA [XGTACX_site5029] | 11.2 ± 0.64
CGGATCTATAAGTGTACACAATCTAGCGAAAAGTTT [CACACA_site4932] | 11.6 ± 1
AATTTGAAATAAAGTAGTACAGTATATAAAAATATA [XGTACX_site128] | 11.8 ± 1.1
